Assay [1] deals with T1, human TGF-β1 (human, UniProt P01137 partial chain). In words: cell-based or functional assay.
In the next assay the target is T2, murine TGF-β1 (murine, UniProt P04202 partial chain, limits assumed).
T2 construct: Bought protein; also called murine TGF-β1 (8915LC, CST)
In words: SPR, Biacore T200, fusion protein captured on Protein A chip, 1:1 Langmuir fit.

Assay [2] deals with T3, human PD-L1 (Sino Biological) (human, UniProt Q9NZQ7 partial chain, limits assumed).
T3 construct: Analyte in the Biacore assay; also called human PD-L1 protein
Described as above.

Assay [3] has as its target T1, human TGF-β1. The description is as above.

The term Kd denotes a measure of binding affinity in units of concentration. The term koff denotes the first-order rate constant of dissociation. A higher koff goes with fast dissociation. Usually kon stands for a measure of how fast the partners come together. Lower therefore signals slow association.

T1 sequence (P01137 279-390 limits assumed): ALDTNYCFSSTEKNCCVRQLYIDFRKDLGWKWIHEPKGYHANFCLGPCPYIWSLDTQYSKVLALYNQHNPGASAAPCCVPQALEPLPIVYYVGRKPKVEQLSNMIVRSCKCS
T3 sequence (Q9NZQ7 19-239 limits assumed): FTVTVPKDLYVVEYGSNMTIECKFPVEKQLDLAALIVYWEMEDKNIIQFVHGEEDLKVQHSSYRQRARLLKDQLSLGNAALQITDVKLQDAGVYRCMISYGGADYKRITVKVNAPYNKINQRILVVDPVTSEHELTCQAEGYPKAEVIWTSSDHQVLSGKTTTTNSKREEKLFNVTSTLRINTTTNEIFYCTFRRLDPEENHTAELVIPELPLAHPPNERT
Chain of murine TGF-β1 (P04202 279-390 limits assumed): as the sequence (P01137 279-390 limits assumed) above, with A75S counted along it

B1: FP17022 (other)
heavy: EVQLLESGGGLVQPGGSLRLSCAASGFTFSSYIMMWVRQAPGKGLEWVSSIYPSGGITFYADTVKGRFTISRDNSKNTLYLQMNSLRAEDTAVYYCARIKLGTVTTVDYWGQGTLVTVSSASTKGPSVFPLAPSSKSTSGGTAALGCLVKDYFPEPVTVSWNSGALTSGVHTFPAVLQSSGLYSLSSVVTVPSSSLGTQTYICNVNHKPSNTKVDKRV[human IgG1 Fc not shown]GGGGSGGGGSGGGGSGGGGSGIPPHVQKSVNNDMIVTDNNGAVKFPQLCKFCDVRFSTCDNQKSCMSNCSITSICEKPQEVCVAVWRKNDENITLETVCHDPKLPYHDFILEDAASPKCIMKEKKKPGETFFMCSCSSDECNDNIIFSEEYNTSNPD
light: QSALTQPASVSGSPGQSITISCTGTSSDVGGYNYVSWYQQHPGKAPKLMIYDVSNRPSGVSNRFSGSKSGNTASLTISGLQAEDEADYYCSSYTSSSTRVFGTGTKVTVLGQPKANPTVTLFPPSSEELQANKATLVCLISDFYPGAVTVAWKADGSPVKAGVETTKPSKQSNNKYAASSYLSLTPEQWKSHRSYSCQVTHEGSTVEKTVAPTECS
With B1, the “IC50 (read off the curve), RLU of the TGF-β1-induced SMAD3 reporter” value in the assay with human TGF-β1 [1] was around 0.02 nM.

B2: Fusion protein 9 (other)
heavy: QVQLVQSGAEVKKPGASVKVSCKASGYTFTSYWMHWVRQAPGQGLEWMGRIGPNSGFTSYNEKFKNRVTMTRDTSTSTVYMELSSLRSEDTAVYYCARGGSSYDYFDYWGQGTTVTVSSASTKGPSVFPLAPCSRSTSESTAALGCLVKDYFPEPVTVSWNSGALTSGVHTFPAVLQSSGLYSLSSVVTVPSSSLGTKTYTCNVDHKPSNTKVDKRV[human IgG4 Fc with S228P F234A L235A (EU numbers) not shown]AGGGGSGGGGSGGGGSGGGGSGGAVKFPQLCKFCDVRFSTCDNQKSCMSNCSITSICEKPQEVCVAVWRKNDENITLETVCHDPKLPYHDFILEDAASPKCIMKEKKKPGETFFMCSCSSDECNDNIIFSEEYNTSNPD
light: DIVLTQSPASLAVSPGQRATITCRASESVSIHGTHLMHWYQQKPGQPPKLLIYAASNLESGVPARFSGSGSGTDFTLTINPVEAEDTANYYCQQSFEDPLTFGQGTKLEIKRTVAAPSVFIFPPSDEQLKSGTASVVCLLNNFYPREAKVQWKVDNALQSGNSQESVTEQDSKDSTYSLSSTLTLSKADYEKHKVYACEVTHQGLSSPVTKSFNRGEC
notes: Antibody-receptor ECD fusion; also called Ab-(G4S)4G-ECD (20-136); PD-L1/TGF-β trap
For B2, the “IC50 (read off the curve), RLU of the TGF-β1-induced SMAD3 reporter” value with human TGF-β1 [1] was around 0.03 nM. Also, in the assay with murine TGF-β1, binding was put at a Kd of 0.0307 nM, the koff came to 0.00133 s⁻¹ and the kon was 4.33e+07 M⁻¹ s⁻¹. In assay [2], this molecule showed a Kd of 0.0631 nM, a koff of 0.000124 s⁻¹ and a kon of 1.97e+06 M⁻¹ s⁻¹. In the assay with human TGF-β1 [3], this molecule showed a dissociation constant Kd of 0.0422 nM, a koff of 0.000728 s⁻¹ and a kon of 1.73e+07 M⁻¹ s⁻¹.

B3: Fusion protein 15 (other)
heavy: QVQLVQSGAEVKKPGASVKVSCKASGYTFTSYWMHWVRQAPGQGLEWMGRIGPNSGFTSYNEKFKNRVTMTRDTSTSTVYMELSSLRSEDTAVYYCARGGSSYDYFDYWGQGTTVTVSSASTKGPSVFPLAPCSRSTSESTAALGCLVKDYFPEPVTVSWNSGALTSGVHTFPAVLQSSGLYSLSSVVTVPSSSLGTKTYTCNVDHKPSNTKVDKRV[human IgG4 Fc with S228P F234A L235A (EU numbers) not shown]AGGGGSGGGGSGGGGSGGGGSGGGGSGVKFPQLCKFCDVRFSTCDNQKSCMSNCSITSICEKPQEVCVAVWRKNDENITLETVCHDPKLPYHDFILEDAASPKCIMKEKKKPGETFFMCSCSSDECNDNIIFSEEYNTSNPD
light: B2 light
notes: Antibody-receptor ECD fusion; also called Ab-(G4S)5G-ECD (22-136); PD-L1/TGF-β trap
For B3, in the assay with murine TGF-β1, the Kd was found to be 0.0342 nM, the dissociation rate constant (koff) is 0.00122 s⁻¹ and the kon was found to be 3.57e+07 M⁻¹ s⁻¹. In assay [2], the Kd came out at 0.061 nM, the koff is 0.000124 s⁻¹ and the kon stood at 2e+06 M⁻¹ s⁻¹. In addition, in the assay with human TGF-β1 [3], binding was characterised by a dissociation constant (Kd) of 0.0226 nM, the koff was 0.000608 s⁻¹ and the kon is 2.69e+07 M⁻¹ s⁻¹.

These data come from patent publication US20220017601A1 (JIANGSU HENGRUI MEDICINE, published 2022).
